Source: the supplement of paper PMC11417369
Some of the results follow.

Tested on: PfSIP2 AP2 domain 1 (GST-tagged)
Test: gcPBM binding intensity (ln(normalized median fluorescence intensity)); higher = stronger DNA binding
Summary of the method: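 Binding intensity is the highest Masliner-normalised natural-log median intensity over replicate spots in either probe orientation. To obtain it, GST-tagged P. falciparum DNA-binding domains made in E. coli were incubated for 1 h on an Agilent 4 × 180k array of primer-extended double-stranded 36-bp intergenic genomic probes plus negative controls. Detection used Alexa488 anti-GST antibody with scanning at 488 nm.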

Row | Sequence | gcPBM binding intensity (ln)
1 | TACAAGTATAAATAAGCACACATGTGGATATGTACA [CACACA_site4229] | 6.91
2 | AAAATATAAAATAATGCACACATAAACAAAAAATCA [CACACA_site8382] | 7.33
3 | GATAAAATAGGACCATATTCTTTAAAACGATAAAAT [XGTACX_negctrl_site405] | 6.92
4 | ATATATATATATTTATGTACATATACATAATGTATA [XGTACX_site6387] | 8.91
5 | TAAAGTTAAAAATTATGTACATATATATTGTATATT [XGTACX_site5528] | 7.03
6 | TTATTTTATATATCACGTACATAGTTGTCTTCTTTT [XGTACX_site2906] | 7.02
7 | TAAGAAGTATTTTCCTGTACATATTTTATATGTATG [XGTACX_site4658] | 6.68
8 | TGTTCTATTCTATTATTATTTACAAATTATAAATAA [GTGCAC_negctrl_site232] | 7.24
9 | TATATATATTAGTGTGCACACTTTTTATTTTTATCC [CACACA_site8506] | 8.6
10 | ATATATTTATAATAGGTGCATATGTTTTATTTTTCC [GTGCAC_site9849] | 10.2
11 | AGATATGTTTTTAATTGTACATAAATACACAAATAT [XGTACX_site5981] | 6.97
12 | TGTAATAAATAGTACACACACACATATATATATATT [CACACA_site1388] | 7.23
13 | ATATGTGTGTGTATTTGTACCCAATTTTTATATATA [XGTACX_site4948] | 7.44
14 | AAAAAAAAAAAAAAAAAAAAAATACATATATATATA [CACACA_negctrl_site290] | 9.02
15 | AAAGAATTATATAAGGTGCACGAATGTTTCTTTAAT | 10.9
16 | TATAAATATATTTATACACACATTAGTGTATACATG [CACACA_site7397] | 7.02
17 | AGGTGAAAAATATATAATAATGTAACAAAAAAAAAT [XGTACX_negctrl_site394] | 6.89
18 | TCGTGTTAAATTTTTACACACAAACTTGCAATAATT [CACACA_site3824] | 7.05
19 | AACTATAACTAAAAAAATCACATAAAATATTTTATT [TGCATGCA_negctrl_site363] | 6.72
20 | AACAATAAAAATAATTGTACAAGTTTAAAAAAAATT [XGTACX_site1987] | 6.74
21 | TCTTTAAATTTCTCAACACACAGTTATAAAAAATAA [CACACA_site2856] | 7.04
22 | TATATCTTATTTAACACACACAAAGAAAATAGAAAA [CACACA_site3732] | 7.1

Row | Sequence | gcPBM binding intensity (ln)
23 | ATATTTTTTTTTGTTAGTACTCATATTTGTAGTTTT [XGTACX_site7280] | 7.06
24 | CATTTAAGACAAATTACACACGTATGCCAAATATAT [CACACA_site431] | 7.17
25 | TTTTTAATTTCAATGGTGCAGTAATAATATAATAGT | 10.5
26 | AATATATATAATTATAGTACAGAAAATTAAAAAAGA [XGTACX_site2943] | 7.16
27 | AAAAAGCAGGATTATACACACAAATATTTATATGTT [CACACA_site6634] | 6.65
28 | GCGTAGTTCGGAAGGGTGCTTTTTTGTTAATAAAAA [GTGCAC_site9592] | 9.07
29 | TTATGTTATAAATACACACACAAAAGAAAAAAAAAA [CACACA_site7414] | 7.01
30 | TCCCATAATATTAGTAGTACTATTAATATTTTCAGG [XGTACX_site4925] | 6.99
31 | ATTTCTTTTTTTTCTTGTACACATATTAAATTTATG [XGTACX_site734] | 7.19
32 | TTCTCTATAAATGCTGCACACACATTTAATTATTTA [CACACA_site8828] | 7.22
33 | TCTAAACAAATTAATAAAATAAGTATTCAAAATTAT [CACACA_negctrl_site731] | 6.73
34 | GTAAAATTTCGGATTTGTACACATGGCTATGAAAAA [XGTACX_site939] | 6.96
35 | AATATTTATTTTTTTGCACACATATTTTACATTTTA [CACACA_site3182] | 7.39
36 | ATTCTAATTACATATACACACAAAGGTTCATAACAA [CACACA_site3076] | 7.33
37 | TATATAAATGTATACACACACATATAAATATAAATA [CACACA_site6751] | 7.05
38 | TAACTACTAGAAAAAACACACAAAAAGTAAATATAT [CACACA_site2740] | 6.95
39 | TTCCCATGTAATATTAAACACACACCCATATAACAC [CACACA_site7905] | 7.78
40 | TAAAATATAAGACACACACACATATATTTATATATC [CACACA_site6248] | 7.05
41 | TACCAAATCACCCCTTGTACCCATTTTAAAATTTTC [XGTACX_site396] | 7.22
42 | TGTTTAACATTTATATGTACATATATTCACATATTA [XGTACX_site342] | 6.99
43 | TGATTTTTTTTTTTTTTTTTTTTTTTTTTAGTTTGC [CACACA_negctrl_site1057] | 7.08
44 | ATAAACAGATCATATACATGCATATATGTAGAATAA [TGCATGCA_site157] | 6.88

Row | Sequence | gcPBM binding intensity (ln)
45 | ACATACGAAAATTGGAAGGATAGATAAAAAGAAAAT [CACACA_negctrl_site51] | 7.08
46 | GTACAGATGTAGTATGCATGTAATTATATATAAATT [TGCATGCA_site292] | 7.23
47 | ATATAAAAAAGAGGGAGTACTTGTAACAAAATAATA [XGTACX_site8679] | 7.2
48 | ACGTAGTAGGTATTATGTACATATTTATAAGTATAA [XGTACX_site7336] | 7.05
49 | ACATGTTCATAATTTTGTACATATTTTTATGAACAT [XGTACX_site3976] | 7.12
50 | GAATGTATTCATAAATGTACTTATAATATTATAATA [XGTACX_site3466] | 7.15
51 | ATAACATACATAACAACACACAATATTTATATGTAT [CACACA_site210] | 7.12
52 | ATAAATGAAGATAAATTAAAAAAAAAAAAAAAAAAA [CACACA_negctrl_site992] | 6.94
53 | AATACATAAATATTTTGTACATATTATATAAAATAT [XGTACX_site1627] | 6.98
54 | CGACTTTTAAAATATACACACATATATATATATATA [CACACA_site825] | 9.39
55 | ATGAAAAAAAAAAAAAAAAAAAAAAAAAAAAAAAAA [CACACA_negctrl_site1405] | 6.99
56 | CTTGTACCTAGAAATACACACAATTATATAACTTAT [CACACA_site2838] | 7.2
57 | TATAAGAAAATAATGTGTACTAAATAATAAATGCAT [XGTACX_site1204] | 7.17
58 | CCACATGAGATGATTACACACATATAAATATTTACA [CACACA_site6222] | 7.19
59 | ATATATATTTAATTTACACACAAAAAAAATTGTTGG [CACACA_site961] | 7.15
60 | ACTTTTTAATAATAATAATTATATATATATATATAT [TGCATGCA_negctrl_site459] | 9.29
61 | TCCATTCTATTTTTTACACACGTATGTAAATATTAT [CACACA_site2686] | 7.14
62 | TTAAATACTTTTCGAAGTACATTATATATATAATAT [XGTACX_site7530] | 6.99
63 | CGCAACACTATTTGGGTGCTCTTCAAAAAAAAAAAA [GTGCAC_site9598] | 8.35
64 | ACGAATTAAATGGATTAATATATATATGTATATTTA [CACACA_negctrl_site1512] | 6.81
65 | AGAATATATATAATAGTGCAATGTACAATGAACAAA [GTGCAC_site9577] | 8.01
66 | ATTTGCTTTTATTTTACACACTTGCTCCTGTTGTAC [CACACA_site1088] | 7.27

Row | Sequence | gcPBM binding intensity (ln)
67 | AAAAAAAAATATATTGCACACCTCTCAATAAAAAAA [CACACA_site172] | 7.19
68 | CAGACCTCTTTGTCATGTACATAAAAAAATAAAGAA [XGTACX_site7887] | 7.44
69 | TATAAACAGACGAAAACACACATATGTAAATATATA [CACACA_site4428] | 6.96
70 | TACAAAAAGTTATACACACACGTACCTATAAATAGA [CACACA_site6571] | 6.99
71 | ATAAAAATAATATCATGTACATATGTGTATTGTATT [XGTACX_site1768] | 7.1
72 | AAATGTTGAAAAATATGTACATATTATATATATTAT [XGTACX_site1165] | 7.1
73 | TAAGAAAGACAAAAAAAATGAAAAGAAAAAAAATGA [CACACA_negctrl_site1469] | 6.53
74 | ATTTAGAAAAAATATACACACAGCCTAAACATGCAT [CACACA_site4067] | 6.87
75 | AATATAAGCAAATACACACACACATATATATATATA [CACACA_site3805] | 9.05
76 | TATTTATTTGTTTAAGGTACAGAACAAATTTTTATT [XGTACX_site7414] | 6.99
77 | AAATGTTCTTAAAAATGAATAATATATATATATATA [CACACA_negctrl_site796] | 9.19
78 | ATATTTATTATTATATGTACGTAACATCTTTATAAA [XGTACX_site7016] | 7.19
79 | CATAAATACATACATACACACATATATATATATATA [CACACA_site2106] | 9.58
80 | TTATCCTATACAAGGGAAAAATAAAATAAAATAAAT [TGCATGCA_negctrl_site272] | 6.91
81 | TAAAAAATATTATATACACACAGTATAAAAAAAAAT [CACACA_site4012] | 6.96
82 | ATTGATTATTTTCTAGTGCATAAAATAATTTTTTTT | 9.31
83 | AGTGTCATATAAAATTGTACTTTTTTTTTTTTCTTT [XGTACX_site5651] | 6.76
84 | ATATACATATTATAATGTACATATTTTAATAACCTT [XGTACX_site7617] | 7.06
85 | AATATAAATAAAAACACACACAATGGTACAGATATA [CACACA_site5930] | 7.16
86 | AATTTAAATTAGAATTGTACTAGAAAAGGAATATAT [XGTACX_site6162] | 7.24
87 | AATTATATAATCTTATAACATAATATAATAACATTT [CACACA_negctrl_site187] | 6.76
88 | CATACATACGGACACACACACATATATATATATATA [CACACA_site5598] | 9.3
